Measurements published in the supplement of paper PMC9334596.
Values joined by “and” are separate entries in the source; they are usually repeats but may differ in a detail not shown here. Equal entries are not always repeated. Over roughly 5,300 compounds, “PER2::LUC luminescence relative to vehicle control” has its median near 0.96; the highest 2% begin near 1.3. Some of the results follow.

Tested on: mPer2Luc MEF
Test: PER2::LUC luminescence relative to vehicle control (fold of vehicle); higher = higher PER2::LUC reporter signal
Conditions: 10 µM
Summary of the method: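 In 384-well plates, ~3000 mPer2Luc reporter mouse embryonic fibroblasts per well were cultured in DMEM with 10% FBS at 37 °C and 5% CO2 for 48 h before compounds from commercial libraries were added at 10 μM. ONE-Glo luciferase readings were taken 24 h and 30 h after treatment. Each value is PER2::LUC luminescence given as fold of vehicle control.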

Compound	PER2::LUC luminescence (time after treatment 24 h)	PER2::LUC luminescence (time after treatment 30 h)
Nc1ncnc2c1c(-c1ccc(Oc3ccccc3)cc1)cn2C1CCCC1	0.889	0.797
O=C(NCCO)c1cccc(-c2cc(Nc3ccc(OC(F)(F)F)cc3)ncn2)c1	1.03	1.02
C/C=C(/C)C(=O)O[C@H]1CC(C)=CC(=O)[C@@]2(C)CC[C@@](O)(C(C)C)[C@H]12	1.01	0.988
CCc1cn([C@H]2C[C@H](O)[C@@H](CO)O2)c(=O)[nH]c1=O	0.962 and 0.859	0.942 and 0.798
CC(C)NC[C@@H](O)COc1cccc2ccccc12	0.942 and 0.869	0.975 and 0.894
C[C@H](CCC(=O)NCC(=O)NCCS(=O)(=O)O)[C@H]1CC[C@H]2[C@@H]3[C@H](O)C[C@@H]4C[C@H](O)CC[C@]4(C)[C@H]3C[C@H](O)[C@]12C	0.886	0.904
O=S(=O)(O)NC1CCCCC1	0.919	1.05
C[n+]1ccc(C=Cc2ccc3ccccc3c2)cc1	0.908	1.07
C[C@@H]1O[C@@H](O[C@H]2[C@H](Oc3cc(O)c4c(=O)cc(-c5ccc(O)cc5)oc4c3)O[C@H](CO)[C@@H](O)[C@@H]2O)[C@H](O)[C@H](O)[C@H]1O	0.841	0.85
COc1cc2c(c(OC)c1OC)-c1ccc(OC)c(=O)cc1[C@@H](NC=O)CC2	0.938	0.84
CCNC(=O)NS(=O)(=O)c1sc(CC(C)C)cc1-c1ccc(Cn2c(-c3ccccc3)nc(OC)c2C=O)cc1	0.994	0.997
Nc1nc2ccc(Cl)cc2c2nc(-c3ccco3)nn12	1.08 and 0.859 and 0.779	1.04 and 0.977 and 0.99
CCC(C)N(C)C(=O)c1cc2ccccc2c(-c2ccccc2Cl)n1 (stereo not given)	0.976	0.86
C[C@@H]1CCN(C(=O)CC#N)C[C@@H]1N(C)c1ncnc2[nH]ccc12	1.22 and 1.07	1.2 and 1.23
CN(C)[C@@H]1C(O)=C(C(=O)NCN2CCCC2)C(=O)[C@@]2(O)C(O)=C3C(=O)c4c(O)cccc4[C@@](C)(O)[C@H]3C[C@@H]12	1	0.908
O=S(=O)([O-])NC1CCCCC1.[Na+]	0.938	1.02
Cc1c(N(C)CS(=O)(=O)O)c(=O)n(-c2ccccc2)n1C	0.551	0.918
CCOC(=O)Nc1cc(-c2ccc(C)c(NS(C)(=O)=O)c2)nn2c(C)nnc12	0.132	0.135
COc1cc2c3cc1Oc1c(OC)c(OC)cc4c1[C@@H](Cc1ccc(O)c(c1)Oc1ccc(cc1)C[C@@H]3N(C)CC2)N(C)CC4	0.716	0.772
CC(NCCC(c1ccccc1)c1ccccc1)c1ccccc1 (stereo not given)	0.552	0.689

Compound	PER2::LUC luminescence (time after treatment 24 h)	PER2::LUC luminescence (time after treatment 30 h)
O=c1[nH]c(=O)n(C2CCCO2)cc1F (stereo not given)	1.33	1
Cc1cc2c(F)c(Oc3ncnn4cc(OC[C@@H](C)OC(=O)[C@H](C)N)c(C)c34)ccc2[nH]1	0.73	0.734
Nc1ncnc2c1c(I)cn2[C@@H]1C[C@H](N)[C@@H](O)[C@H]1O	0.874	0.966
CN1CCN(c2c(F)cc3c(=O)c(C(=O)O)cn(CCF)c3c2F)CC1	1.1	0.943
C[N+](C)(C)CC[N+]1(C)Cc2c(Cl)c(Cl)c(Cl)c(Cl)c2C1	0.91	0.954
C[C@H](CCC(=O)O)[C@H]1CC[C@H]2[C@@H]3[C@H](O)C[C@@H]4C[C@H](O)CC[C@]4(C)[C@H]3CC[C@]12C	0.871 and 0.894	0.984 and 0.895
NCC(O)CC(=O)O (stereo not given)	1.23 and 1.06	1.56 and 0.991
NCCOCCOCCNC(=O)Cc1ccc(Nc2nc(NCc3ccc(F)cc3)nc(NCC3CCCCC3)n2)cc1	1.09	1.03
C=CC(=O)Nc1cccc(Oc2nc(Nc3ccc(N4CCN(C)CC4)cc3OC)ncc2Cl)c1	0.827	1
O=C(/C=C/c1ccc(O)c(O)c1)OCCc1ccccc1	0.173	0.361
NC(=O)c1ccccc1Nc1ccnc(Nc2cccc(O)c2)n1	0.392	0.446
N[C@](CC1c2ccccc2Oc2ccccc21)(C(=O)O)[C@H]1C[C@@H]1C(=O)O	0.942	1.05
NNc1nncc2ccccc12	1.17	1.28
CC(=O)OCC(CCn1cnc2cnc(N)nc21)COC(C)=O	0.983	1.13
COc1ccc([C@@H]2CC(=O)c3c(O)cc(O[C@@H]4O[C@H](CO)[C@@H](O)[C@H](O)[C@H]4O[C@@H]4O[C@@H](C)[C@H](O)[C@@H](O)[C@H]4O)cc3O2)cc1O	0.937	0.89
C1CNCCN1	0.982	0.915
N[C@@H]1c2cccnc2[C@H](OC(=O)N2CCC(n3c(=O)[nH]c4ncccc43)CC2)CC[C@H]1c1cccc(F)c1F	0.845	1.04
COc1c2occc2c(OC)c2c(=O)cc(C)oc12	0.927	0.836
CC[C@H](C)C(=O)O[C@H]1CCC=C2C=C[C@H](C)[C@H](CC[C@@H]3C[C@@H](O)CC(=O)O3)[C@H]21	0.611	0.612
Nc1cc(C(Cl)=C(Cl)Cl)c(S(N)(=O)=O)cc1S(N)(=O)=O	0.921	0.98
